Reference: the RNAGym collection of RNA variant scans (doi:10.1093/nar/gkz1192)
The source gives no read counts; variants with many changes may rest on few reads.

B1: CPEB3 Ribozyme (parent)
chain: UAACAGGGGGCCACAGCAGAAGCGUUCACGUCGCAGCCCCUGUCAGAUUCUGGUGAAUCUGCGAAUUCUGCUGUAUAUCUC

Variants of: B1
Assay: self-cleavage, relative activity (ratio to wild type); higher = more cleavage; in vitro, sequencing
Procedure, shortened: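 Libraries of CPEB3 self-cleaving ribozyme mutants came from rounds of error-prone PCR and carried barcodes, which DNA sequencing matched to variants. In vitro transcription used T7 RNA polymerase at 37°C for 5 hours, with a further 15 min in DNase I before EDTA stopped the reaction; the ribozymes cleaved during both steps. The RNA was reverse transcribed with template switching and sequenced on Illumina. Relative activity is the cleaved/total read fraction of a variant divided by that of the unmutated ribozyme, averaged over three batches with at least 5 reads.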

Variant | self-cleavage
G19U A64U U76A | 0.09
G19U A65U A75U | 0.09
G19U C32U C34G U43C G53A | 0.05
G19U C32U U49C U58C U67C U78C C81U | 0.06
G19U C38U A56G U60A | 0.08
G19U C62U U69A | 0.05
G19U G24A A35U U72A | 0.28
G19U G24A U31C A64G U80C | 0.09
G19U G30A A45G A47U U67C | 0.09
G19U G33A C37G U41C U80C | 0.06
G19U G33U A45G | 0.27
G19U G55A A65U C68U A77U U78C | 0.08
G19U U25A C27U A45U A57G | 0.05
G19U U25C U31C A64G A65U | 0.1
G19U U25C U41C C50U U60A | 0.14
G19U U26C G30U U43C U51A U60C | 0.09
G19U U26C U41A | 0.1
G19U U26C U69C | 0.13
G19U U26C U72A U78C | 0.13
G19U U31C U48C U78C | 0.12
G19U U41A U43C | 0.22

Variant | self-cleavage
G19U U41A U69A | 0.11
G19U U41C A65G G70A | 0.35
G19U U41C U49C A56G U69A | 0.08
G19U U41C U49C U72C | 0.16
G19U U41C U66A G73U U80C | 0.11
G19U U41C U69A | 0.18
G19U U43C A64U | 0.61
G19U U43C A75U | 0.19
G19U U48C A56U A64U | 0.13
G19U U49C G70A | 0.53
G19U U49C U51C | 0.09
G19U U51A U69C | 0.13
G19U U54A A56G | 1.01
G19U U54C U58C | 0.12
G19U U60C U69C U74C A75G | 0.07
A20C A21G A28G | 0.38
A20C A21G C39A U49A | 0.05
A20C A21G U41G U49A | 0.12
A20C A28G A47G | 0.28
A20C A28G A65U | 0.05
A20C A28G G53C | 0.27

Variant | self-cleavage
A20C A45C A65G U76C | 0.16
A20C A45C A65G U76C A77G | 0.05
A20C A45C U51A U78C | 0.22
A20C A45G A56U U80C | 0.39
A20C A45U U72C | 0.49
A20C C27U A47G U49A U51C A56U | 0.16
A20C C27U A47G U51C A56U | 0.04
A20C C27U U41C A47G U51C A56U | 0.25
A20C C29U U41C U43A A45G C59A U72C | 0.06
A20C C29U U51A G52U | 0.17
A20C C34U A77U | 0.12
A20C G22U C27G U43A U80A | 0.06
A20C G24A U26C U69C | 0.16
A20C G30A C44U A64U | 0.11
A20C U25A U78C | 0.07
A20C U25C A35U G46C | 0.06
A20C U25C A45G | 0.09
A20C U25C U69A U72A | 0.05
A20C U26A U48C U66C | 0.24
A20C U26A U49C U72C U74C | 0.07
A20C U26A U72C U78C | 0.24

Variant | self-cleavage
A20C U26C A28U C29U A45G C81U | 0.08
A20C U26C C37U | 0.08
A20C U26C U31C U72C | 0.08
A20C U26C U69C | 0.22
A20C U26G U43G | 0.04
A20C U31C A45U C62A A64C | 0.05
A20C U48C A75U | 0.42
A20C U48C C50A U60C U72A | 0.23
A20C U54C U67C | 0.14
A20C U54C U72C U80A | 0.22
A20C U69C U72A | 0.09
A20G A21G A28U C44A | 0.29
A20G A21G A28U U60A U69A U72C | 0
A20G A21G A35G A47G U48C U51C U69C | 0.28
A20G A21G A35G U43A | 0.26
A20G A21G A45G C50U U72A | 0.12
A20G A21G A45U U72A | 0.08
A20G A21G A64G | 0.42
A20G A21G A75G | 0.43
A20G A21G C27A A35U U41C | 0.17
A20G A21G C29U A45G U49C U54C | 0.04
